PubChem BioAssay AID179 (DTP/NCI, 2004)
Some entries of the source have several records that differ or are many. Only these are listed. An entry can have further records. Results that share an entry are repeats in other runs, samples, wells, individuals or studies. Marks in square brackets tell the records apart. A, B and so on number the origins entry by entry.

The compounds below were run on CEM cells HIV-1 protection, formazan growth assay (assay: NCI AIDS Antiviral Assay). Conditions: measured here: growth of uninfected CEM cells.
Summary of the method: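 Screen of anti-HIV-1 activity in human CEM cells using a formazan-based growth measurement at five drug concentrations. Hits with 50% or greater protection were repeated, and confirmation required reproducible complete protection.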

Row | SMILES | IC50
1 | COC(=O)C1C(O)C(C)C(O)C(C)C=C(C)C2=C3C(=C(C)C(=O)c4c(O)c(c(C)c(OC(C)=O)c43)NC(=O)C(C)=C/C=C\C(C)C(O)C(C)C1O)OCO2 (stereo not drawn) | 3.98 µM [sample A] and 67.6 µM [sample B]
2 | O=C(CCCN1CCC(O)(c2ccc(Cl)cc2)CC1)c1ccc(F)cc1 | 46.8 µM [sample A] and 3.02 µM [sample B]
3 | CN(C)c1ccc(/C=C(\C#N)c2ccccc2)cc1 | 468 nM, 447 nM, 1.7 µM, 708 nM [separate samples]
